This note sets out measurements from the supplement of paper PMC3334620.

Over roughly 33,000 sequences, “E-score (-0.5 to 0.5)” has its median near -0.056; the highest 2% begin near 0.38. Some of the results follow.

For this assay, the target named is Stb4 (UniProt P50104). Kind of assay: PBM E-score (8-mer binding enrichment) (E-score (-0.5 to 0.5)); higher = stronger / more preferred TF binding; most listed sequences are background and not binding sites. To be noted: protein concentration: 200 nM; construct: GST-DNA-binding domain. The procedure:
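Universal 'all 10-mer' protein binding microarrays (Agilent AMADID 015681) probed with GST-tagged S. cerevisiae TFs (full-length or DBD) made by in vitro transcription/translation (PURExpress), about 100-200 nM. Bound TF was detected with fluorescent anti-GST. Each ungapped 8-mer (which stands for itself and its reverse complement) is scored by the PBM enrichment score (E-score), a modified Wilcoxon-Mann-Whitney statistic from -0.5 to +0.5, computed with the Universal PBM Analysis Suite. Scale: above 0.35 generally sequence-specific binding.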
Consider TAGGGCCA, for which the “PBM E-score” value is -0.245.
Regarding ACCGTCAG, the “PBM E-score” value is -0.0659.
Then CAAACTCA, with -0.087.
For the sequence CGCCAATC, the “PBM E-score” value was found to be 0.0166.
For AACAGTTG, the “PBM E-score” value is -0.247.
Regarding ATTAGCGC, the “PBM E-score” value was -0.0934.
For ACCCGCCT the value was 0.0418; for AAGGACTC, 0.127.
In the case of AAACGTAG, the “PBM E-score” value was -0.228.
Regarding ACCTTTTG, the “PBM E-score” value was -0.0261.
Consider CGGAAACG, for which the “PBM E-score” value turned out to be 0.384.
For the sequence AGTGAGGG, the “PBM E-score” value was -0.138.
In the case of CTCCAGTC, the “PBM E-score” value was -0.0791.
Take ACGGCATA: the “PBM E-score” value amounted to 0.0191.
With ATCCACTC, the “PBM E-score” value came to 0.0789.
Take TCGAGCCA: the “PBM E-score” value was -0.204.
As for CTTCGTAC, the “PBM E-score” value was -0.0477.
On to ACCTAACT, for which the “PBM E-score” value turned out to be 0.0483.
For GATGTGGA, the “PBM E-score” value is 0.0581.
Consider GAATCCGA, for which the “PBM E-score” value was determined as 0.4.
On to AGGTGAAC, for which the “PBM E-score” value is -0.149.
For CTACAAAC the value was -0.154; for GACCCCCA, -0.0615.
Turning to CCTCAACG, the “PBM E-score” value was -0.201.
In the case of ATCATTCC, the “PBM E-score” value stood at 0.184.
On to CTAGCCAG, for which the “PBM E-score” value is -0.23.
Turning to AAGCACAA, the “PBM E-score” value was -0.165.
On to CAGCATTA, for which the “PBM E-score” value is -0.149.
On to AATCTCGC, for which the “PBM E-score” value is -0.0297.
Consider AACTTTTG, for which the “PBM E-score” value was -0.145.
As to GGCTATAC, the “PBM E-score” value was found to be 0.103.
Then GCAATTAA, with -0.0341; and AAGGAGAG, with -0.344.
With CAAACATA, the “PBM E-score” value was -0.267.
On to ACGTGATC, for which the “PBM E-score” value was -0.0864.
For ATGTTCGG the value was 0.392; for AGACCAAA, -0.0554.
Regarding CTATACTA, the “PBM E-score” value is -0.0232.
As for CGCTGGGC, the “PBM E-score” value was -0.133.
As for ACAAATAA, the “PBM E-score” value is -0.0319.
Turning to CCACTCGC, the “PBM E-score” value is -0.0766.
For CAGTCGGG the value was 0.275.
For TACGCACA the value was -0.252; for GGACCTGA, -0.0475.
On to AAAGCTAA, for which the “PBM E-score” value is -0.0735.
Take ATGCAGGG: the “PBM E-score” value was -0.0938.
For AGGTCCGC the value was 0.0848; for CGATCGCA, 0.0279; for ATATCCGG, 0.424.
For CCTGGTTA, the “PBM E-score” value is -0.222.
Consider ACAAATTG, for which the “PBM E-score” value is -0.0196.
Turning to TCTCAGCA, the “PBM E-score” value was -0.233.
Consider GTACGCGA, for which the “PBM E-score” value was -0.273.
GCTATCAC: the “PBM E-score” value is -0.18.
In the case of TGGCCACA, the “PBM E-score” value is -0.18.
For the sequence ATCCGTTA, the “PBM E-score” value came to 0.319.
For AGTAATCA, the “PBM E-score” value was -0.0147.
AGGATGCA: the “PBM E-score” value is -0.103.
For GAACGCAC, the “PBM E-score” value was -0.0275.
Then ACGTCCTA, with 0.0106.
For CAAAGACA the value was -0.079.
Then TATTCGGA, with 0.426.
Take CGACCGAC: the “PBM E-score” value stood at 0.121.
For TGGGCGAA the value was -0.204.
With GAACCGGA, the “PBM E-score” value was found to be 0.312.
On to ATATGACA, for which the “PBM E-score” value is -0.0926.
For ATGTTGGG the value was -0.109.
Regarding CATGGCGA, the “PBM E-score” value is -0.0876.
Take CTACCACA: the “PBM E-score” value is -0.106.
Consider CCGCCTGC, for which the “PBM E-score” value amounted to 0.0101.
For CCACTCAA, the “PBM E-score” value is -0.312.
GGGGGAGA: the “PBM E-score” value came to 0.0539.
For GCTAGGCA, the “PBM E-score” value is -0.00335.
With ACACCTTC, the “PBM E-score” value stood at 0.0194.
Turning to ATTCGACA, the “PBM E-score” value was -0.0865.
Take AGCCGCGG: the “PBM E-score” value is 0.315.
Take AGGACGGC: the “PBM E-score” value was -0.144.
On to TACAGCAA, for which the “PBM E-score” value was -0.0927.
For AACCCTTA the value was -0.253.
With CGGGTTCC, the “PBM E-score” value turned out to be 0.325.
AACTGAAC: the “PBM E-score” value is -0.0228.
Then AGGAAGGA, with -0.282; and CATAAAAC, with -0.0872; and CCAGCTGA, with -0.191.
In the case of CGTCTGGC, the “PBM E-score” value was -0.00711.
Turning to CTACGCAG, the “PBM E-score” value is -0.144.
